Values after ≈ are worked out from the molar mass of the structure shown.
Legend:
DU-145 = test: Cytotoxicity against human DU145 cells after 2 days; type: functional; conditions: DU-145, 48 h, read-out: ED50 (the source's name)
[1] = Inhibition of tubulin assembly
HCT-8 = test: Cytotoxicity against human HCT8 cells after 2 days; type: functional; conditions: HCT-8, 48 h, read-out: ED50 (the source's name)
[2] = Cytotoxicity against human KBVIN cells expressing p-glycoprotein after 2 days; type: functional; conditions: 48 h, read-out: ED50 (the source's name)
SK-BR-3 = test: Cytotoxicity against human SKBR3 cells after 2 days; type: functional; conditions: SK-BR-3, 48 h, read-out: ED50 (the source's name)
A549 = test: Cytotoxicity against human A549 cells after 2 days; type: functional; conditions: A549, 48 h, read-out: ED50 (the source's name)

Structure (SMILES)	EC50 (DU-145) [µg/mL]	IC50 [1] [nM]	EC50 (HCT-8) [µg/mL]	EC50 [2] [µg/mL]	EC50 (SK-BR-3) [µg/mL]	EC50 (A549) [µg/mL]
COc1cc2c(c(OC)c1OC)-c1ccc(SC)c(=O)cc1[C@@H](N)CC2.O=C(O)CCC(=O)O	0.0185	880	0.0291	0.033	0.0115	0.0256
CN[C@H]1CCc2cc(OC)c(OC)c(OC)c2-c2ccc(SC)c(=O)cc21	0.018 (≈ 0.0465 µM)	2500	0.038 (≈ 0.0981 µM)	0.0413 (≈ 0.107 µM)	0.0179 (≈ 0.0462 µM)	0.0476 (≈ 0.123 µM)
COc1cc2c(c(OC)c1OC)-c1ccc(SC)c(=O)cc1[C@@H](N)CC2	–	910	0.005 (≈ 0.0134 µM)	0.0139 (≈ 0.0372 µM)	0.0016 (≈ 0.00428 µM)	0.0077 (≈ 0.0206 µM)

From ChEMBL document CHEMBL1250441, “Antitumor agents 273. Design and synthesis of N-alkyl-thiocolchicinoids as potential antitumor agents” (Bioorg Med Chem Lett, 2010)
